Results reported in the supplement of paper PMC11417369.
The other results are listed elsewhere or left out.

What follows are sequences tested on PfSIP2 AP2 domain 1 (GST-tagged) (assay: gcPBM binding intensity (ln(normalized median fluorescence intensity)); higher = stronger DNA binding).
In short: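 Binding intensity is the highest Masliner-normalised natural-log median intensity over replicate spots in either probe orientation. To obtain it, GST-tagged P. falciparum DNA-binding domains made in E. coli were incubated for 1 h on an Agilent 4 × 180k array of primer-extended double-stranded 36-bp intergenic genomic probes plus negative controls. Detection used Alexa488 anti-GST antibody with scanning at 488 nm.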

Row | Sequence | gcPBM binding intensity (ln)
1 | ATATATATATGTATATGTACTTATATTATTGTTTGT [XGTACX_site1466] | 8.83
2 | CTATAATTATGATGAAGTACATATGAGTTCAAAAAA [XGTACX_site3070] | 6.99
3 | ACATAATGCTAGACACGTACGTACATCCGTGAGGTT [XGTACX_site4156] | 7.22
4 | TTATTATTATATTCTACATGCAGTTTGTGTAGAACA [TGCATGCA_site455] | 6.87
5 | GTAAAAGAACGGCATGCATGAAAAATATTACACATG [TGCATGCA_site143] | 6.88
6 | TTTCAATAATAAAAAACACACACAAAAAAAAATAAT [CACACA_site8905] | 7
7 | AAAAATATAAACACCAGTACACAAACCTATAATGGA [XGTACX_site3846] | 6.93
8 | AAAGTAAATTTAAGCACACACAACGAATTTTTATAC [CACACA_site1959] | 7.22
9 | AAAATTTATAAAAGCACACAAAATAAAAAAAAATGA [CACACA_site1491] | 7.06
10 | TTATAATATGTATACACACACATATATAAATATATA [CACACA_site2326] | 7.02
11 | TTTTGTTATATACAATAGATCAGAAGAAATGAAGTT [CACACA_negctrl_site1579] | 7.14
12 | CAATGTTAACATATTACACACATATGTATATAGAAT [CACACA_site2732] | 6.95
13 | CTTACGTATTAAGTGTGTCCGTAGTGTTCATAGTTC [XGTACX_site8913] | 6.98
14 | TATATATGTATATATTTTATAAGTATGCAAGAAAAT [TGCATGCA_negctrl_site486] | 7.94
15 | ATATTGGAATAAATTTGTACATATATATATTATTCA [XGTACX_site916] | 7.02
16 | AAAAAAAAAGAAAAATGTACATACATAAATATATAT [XGTACX_site5664] | 6.94
17 | ATTATAAACCATAATTAACACACAAAATAAGTTACA [CACACA_site9057] | 6.93
18 | AAAAAAAAAAAAAAAAGTACACAAATAGATTTATAT [XGTACX_site3727] | 7.65
19 | ATTCTATTTTTTATAAAACCATGTCATCAACATAGG [CACACA_negctrl_site237] | 7

Row | Sequence | gcPBM binding intensity (ln)
20 | CATCCATATAAAATATGTACATATATATATATATAT [XGTACX_site5859] | 9.25
21 | TCCTTTCAACCATATATAATGACATGTACTCAAAAA [GTGCAC_negctrl_site417] | 7.39
22 | TATTTTAGTAAAGGTGGTACTTTTAAGTTCATGTAT [XGTACX_site1854] | 7.21
23 | TATATATCAAGACACACACACATATATTTATTTATA [CACACA_site7733] | 7.11
24 | GATAATTTATTTTTTCGTACACAAAATATAATATAT [XGTACX_site1470] | 7.28
25 | TCGTGAGAAAATATTACACACATTTACTATAGTATC [CACACA_site3444] | 6.77
26 | TTTTTTAAAGATTACTCAAAAAAATAAAAAAATAAA [GTGCAC_negctrl_site222] | 6.82
27 | TGAGTTCAACAAAGACGTACAAAACCAAAAATATAA [XGTACX_site8931] | 7
28 | TTTTTTTTTTTTTTTTGATACATTAACCTACAATGG [GTGCAC_negctrl_site625] | 6.95
29 | AAAAATAAAAAAAGCACACACATATAAATAAATATA [CACACA_site6968] | 6.87
30 | TAATTTTTCTTTTATTAACACACATATAAATAAATA [CACACA_site8935] | 7.04
31 | CCCAATAATTAAACAACACACATATTTATAGGTAAT [CACACA_site7445] | 6.96
32 | ATATATTTATATATTACACACAATATTGTAGACATA [CACACA_site4669] | 7.05
33 | TATATGACAAGATAAAGTACAAATTTGTATATATAT [XGTACX_site3027] | 7.68
34 | ATATATATACTGTGTACACAAATATATATTATATAT [CACACA_site6104] | 7.67
35 | TAAAATAAAAAGTTTACACACATATATAATTTTAAT [CACACA_site662] | 6.7
36 | AACCATTTTAAATATGCACACAGATGCACTAACACA [CACACA_site8565] | 11
37 | GAATTATATAATTAAAGTACATTGTTTATATAATCA [XGTACX_site7246] | 7
38 | TTTACACGTACGTGTACACACAAAAATATGTTTTTA [CACACA_site995] | 7.18

Row | Sequence | gcPBM binding intensity (ln)
39 | AAATTCCACGGACACACACACATATAAATAAATAAA [CACACA_site4811] | 7.52
40 | TGTAGTCTGGAGAAAAGTACATAGTATCTGGTAGCT [XGTACX_site2031] | 6.94
41 | GAAAGAAATAAAGGTGGTACATAAATAAAAACTAAG [XGTACX_site4826] | 7.38
42 | ATTTATATGGTTTGCACACATAACAACTATGGTTAT [CACACA_site3632] | 7.22
43 | AACATAAAAAAAATATGTACATATATAATATATATA [XGTACX_site3764] | 7.85
44 | AAAAAAAATTTCTCAAGTACACAATTTTTTTTTGTT [XGTACX_site5874] | 6.85
45 | TTTTTTTAAATATATAAGATAAATTTATAAATAAAT [XGTACX_negctrl_site282] | 6.58
46 | TTTTATTTTTATAACAGTACATAAGTAATTGTTCAA [XGTACX_site7574] | 6.89
47 | TTATAATAAAAAAATTCCTAAGTCCGTATATATTAT [CACACA_negctrl_site1698] | 6.72
48 | TTTTATCATCACATTTGTCAAAAAAAAAAAAAAAAA [CACACA_negctrl_site1296] | 7.2
49 | ATATCAAACTAGAATGTGCGCATGCATTCAAGTTTT | 7.12
50 | TTATGTTCATTATATGCACACATATATATAAATGTA [CACACA_site8947] | 7.47
51 | GATTTTATAATTTCTACACACATATAAGAATATTCA [CACACA_site2802] | 7.02
52 | AAATTTGGATGACTCAATAAATTATAATATATATAT [CACACA_negctrl_site298] | 8.72
53 | ATATTCTTTATATGCATACACACCTAATATAGGGAC [CACACA_site1533] | 7.31
54 | TTCAATTTTTTAAAGCGTACATATAAAAGTTATATG [XGTACX_site731] | 7.36
55 | AATCATTTGTTATAAGTCTAAAATTATTAGAATATT [XGTACX_negctrl_site151] | 6.82
56 | ATTATTACATATAATGCATGTGCATATATTTTTATA [TGCATGCA_site701] | 8.42
